These results are taken from the supplement of paper PMC10126150.

Sequences with one replicate were seen in a single cluster, so their values are uncertain.

The test system of the data set is ATP. In words: switch fluorescence ratio, 500 uM ATP over buffer (Cy3 cluster intensity, sum of 5 cycles each) (fold (ratio)); higher = stronger signal-on switching upon ATP binding; sequences stand for … in TCGTCGGCAGCGTCAGATGTGTATAAGAGACAGTTTTTTTTTTTTTTTTTTTTTTTTT…TC. To be noted: aptamer strand: ATP DNA aptamer (quencher-CACCTGGGGGAGTATTGCGGAGGAAGG + anchor), 100 nM annealed; ATP concentration: 500 uM; one replicate. Put shortly:
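Cy3-labelled switching-strand clusters on a modified Illumina MiSeq flow-cell were annealed to 100 nM quencher-labelled ATP aptamer, imaged in selection buffer, then imaged after 15 min with 500 uM ATP at 22 °C. Five buffer/ATP cycles ran, with NaOH stripping and re-annealing between them. The fluorescence ratio is summed target-cycle over summed buffer-cycle Cy3 intensity per cluster, averaged per switch-domain sequence. Clusters outside 100-1000 RFU were excluded.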
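Also: ATP exposure 15 min at 22 °C before imaging.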

For AGATTGCCAG, the switch fluorescence ratio amounted to 1.03. The result for AGTGCGACTC reads 0.996; that for TGACGTTGCG, 1.03; that for CCGCATTCAG, 4.28. Under TGTGCTCAC stands 1.01.

In the case of TACAGCGGGC, the switch fluorescence ratio came to 1.

Take TTTTCGCGTC: the switch fluorescence ratio is 0.991. Under TCAGATTTGA stands 0.993; under ATTAAAGCCA, 1.01.

Take GAGGCGATGG: the switch fluorescence ratio was 2.02. The result for ATTCAGCGGA reads 0.985; that for TTATTGAGC, 0.994; that for TTGGGCCACT, 0.955.

On to AACTAGTCTG, for which the switch fluorescence ratio was 1.01. Under TCGATCAGTG stands 0.954.

In the case of CTATATAGGC, the switch fluorescence ratio was determined as 1.03. The result for AATTAGAATA reads 1.03; that for ACATCATGAT, 1.05. In the case of TTCTCATCAT, the switch fluorescence ratio worked out at 1.

CCAGTAGTGC: the switch fluorescence ratio was 1.59. Consider GTATATTGTA, for which the switch fluorescence ratio was 1.06. Under ACAGGGCGCT stands 0.987; under GGAAGGTTGA, 1.03; under ACACACAAGA, 1.28.

On to TAATTGAGG, for which the switch fluorescence ratio was 1.07. For TACAATCTCC, the switch fluorescence ratio came to 1.43. Under ATGAGGCCAG stands 0.998; under GGCGGGCAAG, 1.03. For the sequence GATCAGAGTG, the switch fluorescence ratio was 1.03. Under CCATTGTAAC stands 1.01.

For the sequence TAGTAAGGTG, the switch fluorescence ratio stood at 1.08.

Turning to CTCTTGCGGT, the switch fluorescence ratio is 1.01. With TGATTATGAC, the switch fluorescence ratio came out at 0.952.

Consider GGGGTTACGT, for which the switch fluorescence ratio was 0.98.

GGGAGTGTCG: the switch fluorescence ratio worked out at 1.05.

Consider TACTAAACGC, for which the switch fluorescence ratio amounted to 1.15. GGTATCTAGG: the switch fluorescence ratio was found to be 0.979. Under GAAGCTATAG stands 3.76; under TATCGTAATG, 1.03; under GAAGGAAGT, 1.01. Under AAACGGTGT stands 0.999. Under TCCTTTATGG stands 0.995; under ATGTGAGATG, 0.975. Take GGTCCAGGGG: the switch fluorescence ratio came out at 1.84.

For CTAAACGCTA, the switch fluorescence ratio came out at 1.62.

With AAGAAGCCAA, the switch fluorescence ratio was 0.985. Under CAAGCTCGTC stands 1.03; under TCTGGATCGA, 0.972. Under AGGAGATCGC stands 0.967; under ATAGATCCCC, 0.986.

TTATACATTT: the switch fluorescence ratio was 1.02. With GATTAAACTT, the switch fluorescence ratio came out at 1.

Take CATTTCTCTG: the switch fluorescence ratio amounted to 1.08. In the case of TATCAAGGGT, the switch fluorescence ratio was determined as 0.965. TAAGTGAC: the switch fluorescence ratio came to 1.12.

For TGGAACTTGC, the switch fluorescence ratio is 1.12.

With GACCCTAATA, the switch fluorescence ratio is 1.05.

For GCTGATGCTC, the switch fluorescence ratio was found to be 1.09.

As to ACTCGAGGGT, the switch fluorescence ratio came out at 1.17. On to TGCGCGAAGG, for which the switch fluorescence ratio is 0.999.

For the sequence TTCTCGTAAG, the switch fluorescence ratio was determined as 0.965. As to TTGCGTCATG, the switch fluorescence ratio was 1.

TGTCAAATC: the switch fluorescence ratio was 1.21. For TGGTGTCTGG, the switch fluorescence ratio worked out at 1. The result for TGGAGTGAAT reads 1; that for CGTTCCCCGT, 1.3. Under GCGCAAAGTA stands 1.06; under GAAGACGCTT, 1.05. Regarding TGACCCGAAT, the switch fluorescence ratio is 1.02. Under TTCAAGACAC stands 1.03. The result for CAATTGCCTG reads 0.981. Under CATAAAAATT stands 0.999.

Take AGTACTAAAT: the switch fluorescence ratio came to 0.939.

For the sequence GGGGGACGG, the switch fluorescence ratio came out at 1.04. The result for GGGGTGCCGA reads 1.04; that for CAATAGGCCT, 0.998. Under GTCTCCGTCG stands 1.01; under CCTGATGTGT, 1.05.
